± gives the standard deviation of the averaged measurements. The list shows a part of the results.

This experiment relates to PfAP2-G AP2 domain (GST-tagged). The experiment can be described thus: gcPBM binding intensity (ln(normalized median fluorescence intensity)); higher = stronger DNA binding. The procedure, abridged:
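Binding intensity is defined as the maximum Masliner-normalised natural-log median intensity across replicate spots for either probe orientation. It was measured on an Agilent 4 × 180k array of primer-extended double-stranded 36-bp intergenic genomic probes and negative controls, to which GST-tagged P. falciparum DNA-binding domains made in E. coli were applied for 1 h in 1× PBS with 1% milk, 0.2 mg/ml BSA, 0.5% salmon testes DNA and 0.03% Triton X-100. Detection was by Alexa488 anti-GST antibody and scanning at 488 nm.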
Consider “TTATTTACAACTTCAAATTATGTGTAATACTACTAT [CACACA_negctrl_site741]”, for which the “gcPBM binding intensity (ln)” value came out at 10.1 ± 0.18. Next, “AATATAAAAAAAAAAAAAAAAAAAAAAAAAAAGACA [CACACA_negctrl_site983]”: 9.76 ± 0.23; “TTGTTAATATGATAAAAGAGGAATATTCTCTTCCTA [GTGCAC_negctrl_site659]”: 9.48 ± 0.14.

Take “TTTTTTTCTTTTTACATACACACAAAAAAATAAAAT [CACACA_site580]”: the “gcPBM binding intensity (ln)” value was found to be 10.2 ± 0.4. With “AGCACATTATTCAAAAGTACAAATAGGTATTGTATA [XGTACX_site6107]”, the “gcPBM binding intensity (ln)” value was 11.1 ± 0.83. For the sequence “TTTATATGTATTAAGTGTACACATATAATGTATTTT [XGTACX_site16]”, the “gcPBM binding intensity (ln)” value came out at 11.5 ± 0.83. The result for CAATTATTGTAATGCATGCACTGAATATAAAAAGAA reads 10.2 ± 0.17. For the sequence “ATATATATATATATATAATATATAATATATATATAT [CACACA_negctrl_site96]”, the “gcPBM binding intensity (ln)” value was 9.8 ± 0.92. Take “AAATTAATGTATATGTGAAGCAAGGGATGCGGCAGA [CACACA_negctrl_site406]”: the “gcPBM binding intensity (ln)” value came to 10.2 ± 0.12. With “ATATAAAATATGTATGAGGAATAAAATTAAAAAAAA [XGTACX_negctrl_site173]”, the “gcPBM binding intensity (ln)” value was found to be 9.81. As for “TTTTTTTTGAAGAATACATGCATATTTTCTATATTC [TGCATGCA_site43]”, the “gcPBM binding intensity (ln)” value is 9.91 ± 0.14. As for GTAAATATTTGTTGGGTGCTATCAATTATTTCAAAG, the “gcPBM binding intensity (ln)” value was determined as 10.12 ± 0.021. Next, “ACAATATGCAAAAAGTGTACACATTCATTTATATAA [XGTACX_site1061]”: 11.7 ± 0.86; AATATACAAATAAAGGTGCGAGATATTTTTACTTTT: 9.79 ± 0.2. “ATAAAAAAAGATGAACGTACATATATTTTAAAAATC [XGTACX_site5950]”: the “gcPBM binding intensity (ln)” value stood at 11.2 ± 0.67.

As for “TATTAAATATATATTACATGCAAAAAAAAAAAACAA [TGCATGCA_site705]”, the “gcPBM binding intensity (ln)” value was determined as 9.85 ± 0.028.

As for “ATATTATATATGTATAGTACATATTATAAGAAAAAT [XGTACX_site3457]”, the “gcPBM binding intensity (ln)” value is 10.8 ± 0.64.

For “ATCTATATCTATAATACACACATCATAAAATATGTA [CACACA_site7230]”, the “gcPBM binding intensity (ln)” value was found to be 9.93 ± 0.11.

“ATATATATTAATAATGCATGTGATATAAATTAATAT [TGCATGCA_site930]”: the “gcPBM binding intensity (ln)” value was determined as 9.86 ± 0.17. With “TGCGGAAATAAGTGCACACATAGATATATGTATTTT [CACACA_site3689]”, the “gcPBM binding intensity (ln)” value was determined as 10.4 ± 0.26.

As to “TACAATTCGTAATACACACACATATAAATAAATATT [CACACA_site7720]”, the “gcPBM binding intensity (ln)” value was determined as 10.2 ± 0.2. “CGGCACATTCTATATACACACATATAAATATATACA [CACACA_site566]”: the “gcPBM binding intensity (ln)” value was 9.97 ± 0.042. “ATGATATGGATAAATACACACAATATAATAATGGGT [CACACA_site4905]”: the “gcPBM binding intensity (ln)” value stood at 10.15 ± 0.035.

“AAAAAAAACAGACACACACACATTCAATATAAAACA [CACACA_site41]”: the “gcPBM binding intensity (ln)” value worked out at 9.95 ± 0.11. As to “ATATCTTATATTATCACACACACACCCACAAAACAG [CACACA_site1464]”, the “gcPBM binding intensity (ln)” value is 11 ± 0.78. Next, “ACGTTAATATCTACAAGTACCCACATTAACAGGAAA [XGTACX_site2616]”: 11.2 ± 0.74. As for “ATTTTATATATGTGTTGTACGGTGAACATTTTGATA [XGTACX_site6538]”, the “gcPBM binding intensity (ln)” value was 10.8 ± 0.58. For the sequence “ATATGTATAAATATAAATATATATATATATATATAT [CACACA_negctrl_site705]”, the “gcPBM binding intensity (ln)” value came to 10 ± 0.61. With “GGATCATTTTTAAAGGAACACACAAAAAAAATTATA [CACACA_site8381]”, the “gcPBM binding intensity (ln)” value is 10.3 ± 0.24. Turning to “TATATAAACATCGGTAGTACACACATTCATGTATTT [XGTACX_site6443]”, the “gcPBM binding intensity (ln)” value came out at 11.5 ± 0.71. “TTTTTTTTTTTTTTTTGTACATATACATATATATAT [XGTACX_site1981]”: the “gcPBM binding intensity (ln)” value was found to be 10.9 ± 0.84. Consider “AGTAGCAAATATTAAGTGCATATTATATAATGTGTA [GTGCAC_site9546]”, for which the “gcPBM binding intensity (ln)” value is 9.87 ± 0.11.

As to “ATTAAAAAAAAAAAAAAAAAACAAAAAAAAAAAAAA [CACACA_negctrl_site1187]”, the “gcPBM binding intensity (ln)” value is 9.62. Consider “ATAAATATGGCAGTACGTACGTATATTCATATTCAT [XGTACX_site8042]”, for which the “gcPBM binding intensity (ln)” value is 11.5 ± 0.67. Turning to “TGTTCAGTATGGCACACACACAACAAAATAAAAAAA [CACACA_site4368]”, the “gcPBM binding intensity (ln)” value stood at 10.3 ± 0.42. For the sequence “ATACGAAATAGAAACACACATACAATAAATAAATAT [CACACA_site2017]”, the “gcPBM binding intensity (ln)” value came to 9.87 ± 0.057. As to “GGTTTACCCTATAAATGTACTCATAAATTATATATA [XGTACX_site5771]”, the “gcPBM binding intensity (ln)” value was determined as 11.2 ± 0.82. Regarding ATAAGTTTTTATTTTCTGCACTGTCGAATAATAGTT, the “gcPBM binding intensity (ln)” value turned out to be 10.21 ± 0.085. Take GCGTGTGTACAATGAGTGCATATCTAAAGGGAAGAT: the “gcPBM binding intensity (ln)” value stood at 11.3 ± 0.93. With “GATATGTTTTATTATGTTGATGATAACAGGTAGTTT [CACACA_negctrl_site356]”, the “gcPBM binding intensity (ln)” value amounted to 9.87. On to “GTTCTTTCAAATTATACACACCAAAAAAAAAAAAAA [CACACA_site5660]”, for which the “gcPBM binding intensity (ln)” value was determined as 10.1 ± 0.71. Next, “TGATCAAGTAAGAAAAGTACAAAAAAAGTAAAAAAT [XGTACX_site6529]”: 11.2 ± 0.73; “ATGGATTATTTTTAAACATGCAGTAGTGATGAAAAA [TGCATGCA_site346]”: 10.1 ± 0.12. In the case of “AAAAAAAACATACATACACACACATAAATATATATA [CACACA_site8864]”, the “gcPBM binding intensity (ln)” value amounted to 9.96 ± 0.22. Take “TATATTATAATATTCACACACTAACGTAAATCATTG [CACACA_site7318]”: the “gcPBM binding intensity (ln)” value came out at 9.94 ± 0.014.

Values taken from the supplement of paper PMC11417369.
